Reference: PubChem BioAssay AID488969 (Vanderbilt High Throughput Screening Facility, 2010)
Whole data set: some 110,000 compounds, median “z-score” near -0.1, cut for the highest 2% near 2. This is one part of the list. Calls of active or inactive are those of the source.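 The calls were made as follows: active = z-score in the third read window above 3 or below -3; inactive = the rest.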

target: Metabotropic glutamate receptor 8 (Rattus norvegicus) (UniProt P70579); assay: mGluR8 Gi/Go-coupled signaling modulation – cell-based, rat, thallium flux, HTS, primary screen (AID 488969); conditions: HEK293 rat mGluR8, GIRK (G protein-gated inwardly rectifying potassium channel) thallium flux, FluoZin2; at 10 µM; stronger effect = higher value; submaximal glutamate (EC20) added with thallium
Sequence of UniProt P70579 (P70579 whole entry, looked up): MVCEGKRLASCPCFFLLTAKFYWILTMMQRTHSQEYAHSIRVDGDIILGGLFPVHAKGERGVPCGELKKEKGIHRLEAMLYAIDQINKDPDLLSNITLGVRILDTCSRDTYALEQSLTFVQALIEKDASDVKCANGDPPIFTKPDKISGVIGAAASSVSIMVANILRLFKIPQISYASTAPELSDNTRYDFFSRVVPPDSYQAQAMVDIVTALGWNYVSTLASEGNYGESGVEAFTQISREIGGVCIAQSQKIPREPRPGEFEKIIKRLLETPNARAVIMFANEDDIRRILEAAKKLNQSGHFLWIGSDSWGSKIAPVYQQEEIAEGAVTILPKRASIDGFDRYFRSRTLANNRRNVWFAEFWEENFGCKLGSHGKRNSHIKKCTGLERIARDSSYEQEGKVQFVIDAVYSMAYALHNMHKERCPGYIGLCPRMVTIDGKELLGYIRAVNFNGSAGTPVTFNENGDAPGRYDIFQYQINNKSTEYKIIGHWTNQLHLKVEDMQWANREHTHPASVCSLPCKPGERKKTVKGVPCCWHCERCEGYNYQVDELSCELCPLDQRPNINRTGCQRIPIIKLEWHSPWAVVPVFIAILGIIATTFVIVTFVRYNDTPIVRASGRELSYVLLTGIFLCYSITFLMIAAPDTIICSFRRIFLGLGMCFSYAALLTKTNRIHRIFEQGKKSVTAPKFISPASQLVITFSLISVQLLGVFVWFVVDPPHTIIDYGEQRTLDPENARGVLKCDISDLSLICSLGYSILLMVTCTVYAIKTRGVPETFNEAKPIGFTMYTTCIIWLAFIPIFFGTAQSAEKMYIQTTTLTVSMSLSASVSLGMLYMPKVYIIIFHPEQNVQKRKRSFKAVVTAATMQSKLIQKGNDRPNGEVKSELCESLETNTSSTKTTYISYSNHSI

Question: Which z-score does the source give for Cc1cccc(C)c1OCC(=O)N=Nc1c(O)[nH]c2ccc(Br)cc12 here?
Answer: -0.208

Question: For CCn1cc(C(=O)N2CC=C(c3ccccc3)CC2)c(=O)c2ccc(C)nc21, which z-score is on record?
Answer: -0.132

Question: How did the z-score turn out when Cc1ccccc1C(OCCN(C(C)C)C(C)C)c1ccccc1 (centres undefined) was run?
Answer: 1.06

Question: With CC(C)OC(=O)c1cc2ccccc2[nH]1 as the compound, how does the z-score read?
Answer: -0.0749

Question: For CCn1c(CSCc2ccc(F)cc2)nnc1SCC(=O)NCc1ccccc1, which z-score is on record?
Answer: 0.172

Question: For COc1ccc(C(=O)Nc2ccccc2C(=O)N/N=C/c2cccc3ccccc23)cc1, which z-score is on record?
Answer: -0.0109

Question: Cc1ccc(C)c(NC2=NCC(=O)N2c2ccc3c(c2)OCCO3)c1 was tested. Which z-score did it give?
Answer: 0.186

Question: For CCOC(=O)c1c(/N=C/c2ccc(C)cc2O)sc2c1CCC2, which z-score is on record?
Answer: 0.443

Question: O=c1[nH]c(=O)n(C2CCCCCC2)c(O)c1C=NCc1ccc(F)cc1 was tested. Which z-score did it give?
Answer: 0.78

Question: For COc1ccc(/C=C/c2nc(-c3ccccc3O)n(-c3ccccc3)n2)cc1, which z-score is on record?
Answer: -0.153

Question: CC(=O)Nc1ccc(S(=O)(=O)NCc2ccc(C(=O)NCCN3CCCCCC3)cc2)cc1 was tested. Which z-score did it give?
Answer: 0.0456

Question: For Cc1ccc(C(=O)NCCn2cc(SCC(=O)Nc3cc(C)on3)c3ccccc32)cc1, which z-score is on record?
Answer: -0.282

Question: Which z-score does the source give for O=C(OCCCN1CCCCC1)c1ccc(O)cc1 here?
Answer: 0.0289

Question: Which z-score does the source give for O=C(Nc1nnc(CCOCCOCCc2nnc(NC(=O)c3ccco3)s2)s1)c1ccco1 here?
Answer: -0.165

Question: Which z-score does the source give for O=C(COC(=O)c1ccc[nH]c1=O)NC1CCCC1 here?
Answer: -1.01

Question: With Cc1cc(C(=O)CN2C(=O)NC3(CCCCC3C)C2=O)c(C)n1Cc1cccs1 (centres undefined) as the compound, how does the z-score read?
Answer: -0.337

Question: Which z-score does the source give for COc1ccc2c(-c3cc4ccc(OCc5ccc(F)cc5)cc4oc3=O)cc(=O)oc2c1 here?
Answer: 0.0169

Question: How did the z-score turn out when CC(C)c1ccc(/C=C/C(=O)Nc2nc3ccc([N+](=O)[O-])cc3s2)cc1 was run?
Answer: -0.129

Question: CCOC(=O)N1CCC(N2C(=O)c3ccccc3C2Nc2ccc(C)cc2)CC1 (centres undefined) was tested. Which z-score did it give?
Answer: -0.488

Question: CNc1cccc2c1C(=O)c1ccccc1C2=O was tested. Which z-score did it give?
Answer: -0.102

Question: Which z-score does the source give for O=C(CCc1ccc(S(=O)(=O)NC2CCCCC2)cc1)NCc1ccc(Cl)cc1 here?
Answer: -0.344

Question: With CN(Cc1ccccc1)C(=O)Cn1c(=O)oc2cc(S(=O)(=O)N3CCCC3)ccc21 as the compound, how does the z-score read?
Answer: -0.16

Question: With O=S(=O)(c1ccc(-c2nnc(SCc3nnc(-c4ccccc4)o3)o2)cc1)N1CCCC1 as the compound, how does the z-score read?
Answer: active: 3.72

Question: CCOC(=O)c1c(NC(=O)CSc2nnc(C)s2)sc2c1CCCCC2 was tested. Which z-score did it give?
Answer: 0.0222

Question: How did the z-score turn out when O=c1c2ccsc2ncn1Cc1ccc(Cl)cc1 was run?
Answer: 0.339

Question: For CNC(=O)C1CC(=O)N(c2ccc(F)c(Cl)c2)C1 (centres undefined), which z-score is on record?
Answer: 0.658

Question: For Cc1c(NC(=O)COC(=O)c2c3c(nc4ccccc24)CCCC3)c(=O)n(-c2ccccc2)n1C, which z-score is on record?
Answer: -0.393

Question: CC1Cc2ccccc2N1C(=O)Cn1c(=O)oc2cc(S(=O)(=O)NC3CCCC3)ccc21 (centres undefined) was tested. Which z-score did it give?
Answer: -0.286

Question: How did the z-score turn out when COc1ccccc1/C=C1/SC(=O)N(CCC(=O)Nc2ccc(S(=O)(=O)Nc3nccs3)cc2)C1=O was run?
Answer: -0.59

Question: For CCOc1ccccc1NC(=O)CSc1nnc(-c2ccco2)n1Cc1ccco1, which z-score is on record?
Answer: active: -4.02

Question: Cc1nc2cc(C(=O)O)ccc2n1C1CCCCC1 was tested. Which z-score did it give?
Answer: 0.357

Question: Which z-score does the source give for Cc1c(NS(=O)(=O)c2ccc3c(c2)OCCO3)cccc1-c1nc2cccnc2s1 here?
Answer: 0.463

Question: How did the z-score turn out when CCOC(=O)C1C(=O)C=C(c2ccc(OC)cc2)CC1c1ccco1 (centres undefined) was run?
Answer: 1.21

Question: O=S(=O)(Nc1ccc(N2CCCCC2)cc1)c1cccs1 was tested. Which z-score did it give?
Answer: -0.488

Question: For O=C1c2ccccc2C(=O)N1CN(C(=O)COc1ccccc1)c1ccccc1, which z-score is on record?
Answer: -0.465

Question: Which z-score does the source give for N#Cc1cccc(NC(=O)COC(=O)c2ccccc2Sc2ccccc2C#N)c1 here?
Answer: 0.107

Question: With COc1ccc(-c2nc(-c3cccs3)c(-c3cccs3)[nH]2)cc1O as the compound, how does the z-score read?
Answer: -0.338

Question: Which z-score does the source give for O=C(COc1ccccc1)Nc1nc2ccccc2[nH]1 here?
Answer: -0.199

Question: Cc1ccc(N2C(=O)CC3(CC4C=CC3C4)C2=O)cc1 (centres undefined) was tested. Which z-score did it give?
Answer: -0.471

Question: Which z-score does the source give for COc1cc(C(=O)Nc2cccc(-c3nc4ccccc4o3)c2C)cc(OC)c1OC here?
Answer: -0.059

Question: How did the z-score turn out when CSc1ccccc1NC(=O)CCn1c(=O)sc2ccccc21 was run?
Answer: -0.581

Question: CC(=O)N1CN(CCCn2ccnc2)Cc2c1sc1c2CCCC1 was tested. Which z-score did it give?
Answer: -0.346

Question: O=S(=O)(Nc1nc2ccccc2nc1Cl)c1ccccc1 was tested. Which z-score did it give?
Answer: 0.321

Question: Which z-score does the source give for CN(Cc1ccc(-n2cccn2)cc1)C(=O)c1cnn2c1NC(c1ccco1)CC2C(F)(F)F (centres undefined) here?
Answer: -0.35

Question: How did the z-score turn out when Cc1cc(=O)oc2ccc(OC(=O)c3cccc(S(=O)(=O)N4CCOCC4)c3)cc12 was run?
Answer: -0.185

Question: Which z-score does the source give for O=C(NCCc1ccccc1)c1ccc(=O)oc1 here?
Answer: -0.205

Question: For CCCCCC1CC(CC(=O)O)C(=O)O1 (centres undefined), which z-score is on record?
Answer: -0.0183

Question: With N#Cc1cccc(NC(=O)CC2CCCCC2)c1 as the compound, how does the z-score read?
Answer: 0.239

Question: With COc1ccccc1OCc1nc2ccccc2s1 as the compound, how does the z-score read?
Answer: -0.142

Question: Which z-score does the source give for CCOc1cc(/C=C2\C(=O)N(c3nc(-c4ccc(Br)cc4)cs3)N=C2c2ccccc2)ccc1O here?
Answer: -0.39

Question: Which z-score does the source give for Cc1cccc(N2CCN(CC(O)COCc3cccs3)CC2)c1C (centres undefined) here?
Answer: 0.0218

Question: Cc1ccc(CC(NC(=O)c2ccccc2)C(=O)NC(C)C(=O)O)cc1 (centres undefined) was tested. Which z-score did it give?
Answer: -1.7

Question: How did the z-score turn out when Cc1cc(-c2csc(N)n2)c(C)n1C was run?
Answer: -0.0754

Question: COc1ccc(C2c3c(oc4ccccc4c3=O)C(=O)N2c2ccccn2)cc1 (centres undefined) was tested. Which z-score did it give?
Answer: -0.221

Question: With COc1cc(OC)cc(-c2cc3nc(C)c(CCC(=O)O)c(=O)n3[nH]2)c1 as the compound, how does the z-score read?
Answer: 0.713

Question: C=CCn1c(-c2cccc3ccccc23)n[nH]c1=S was tested. Which z-score did it give?
Answer: -0.0908

Question: COc1ccc(NC(=O)CN(C2CCCCC2)S(C)(=O)=O)cc1OC was tested. Which z-score did it give?
Answer: 1.04

Question: O=C(Cc1ccc(F)cc1)NC1CCCC1 was tested. Which z-score did it give?
Answer: 0.266

Question: With COc1ccc(CN(Cc2ccco2)S(=O)(=O)c2ccc(S(=O)(=O)N3CCCC3)cc2)cc1 as the compound, how does the z-score read?
Answer: -0.254

Question: For Cc1cc(C(=O)CN2C(=O)c3cccc(N)c3C2=O)c(C)n1Cc1cccs1, which z-score is on record?
Answer: -0.264

Question: With Cc1ccc(/C=C/C(=O)OCC(=O)Nc2ccccc2Sc2ccccc2)cc1 as the compound, how does the z-score read?
Answer: 0.00277

Question: O=C(O)C1CCCCC1C(=O)Nc1ccccc1F (centres undefined) was tested. Which z-score did it give?
Answer: -0.0496

Question: How did the z-score turn out when Cc1ccccc1-c1nc(CN2CCC(C(=O)O)CC2)c(C)o1 was run?
Answer: -0.619

Question: With COc1cc2c(cc1OC)C(c1cc(OC)c(OC)c(OC)c1)NCC2 (centres undefined) as the compound, how does the z-score read?
Answer: -0.346

Question: CC(C)(C)C(=O)N1CCN(c2ccc([N+](=O)[O-])c(NCC3CCCO3)c2)CC1 (centres undefined) was tested. Which z-score did it give?
Answer: -0.343

Question: Which z-score does the source give for COc1cc(NC(=O)c2cccc(COCC(F)(F)C(F)F)c2)cc(OC)c1OC here?
Answer: 0.706

Question: With Cc1cccc(CN2C(=O)CCSc3ccc(Cl)cc32)c1 as the compound, how does the z-score read?
Answer: -0.268

Question: CC(/C=N/Nc1nc2ccccc2[nH]1)=C\c1ccccc1 was tested. Which z-score did it give?
Answer: -0.239

Question: How did the z-score turn out when Cc1ccc(C(C)n2cc(C(=O)NCc3ccncc3)nn2)cc1 (centres undefined) was run?
Answer: -0.972
